Drawing on article PMC7819943, “Rice protein-binding microarrays: a tool to detect cis-acting elements near promoter regions in rice”, this text covers binding signal for 42 sequences.

The list shows a part of the results.

This assay has as its target T1, OsWOX13 (Oryza sativa, UniProt Q5QMM3 1-267).
T1 sequence: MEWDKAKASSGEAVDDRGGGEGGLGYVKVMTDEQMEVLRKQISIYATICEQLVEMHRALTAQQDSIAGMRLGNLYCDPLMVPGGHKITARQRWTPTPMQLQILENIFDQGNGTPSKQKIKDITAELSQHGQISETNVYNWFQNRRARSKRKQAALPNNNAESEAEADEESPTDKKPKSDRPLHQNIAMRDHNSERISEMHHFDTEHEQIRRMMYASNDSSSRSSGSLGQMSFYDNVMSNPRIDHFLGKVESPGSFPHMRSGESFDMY
Description: protein-binding microarray (RPBM); PBS, 2% BSA, 51.3 ng/ul salmon testes DNA, 50 uM zinc acetate, 200 nM TF, 25 C, 1 h; high values mean tight binding. The settings on record: protein: recombinant; tags: N-terminal polyhistidine and DsRed monomer fusion (pET32a); label: CyDye5-dUTP incorporated in the synthesized complementary strand; 3' TTTTT single-stranded linker to array surface; dsDNA, one strand shown. The gist of the method:
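The binding signal is fluorescence intensity per feature, in arbitrary units, read on an Axon 4000B scanner. Polyhistidine- and DsRed-tagged transcription factors (N-terminal fusions) from E. coli BL21-CodonPlus were purified on Ni–NTA and applied at 200 nM for 1 h at 25 °C to a double-stranded, BSA-blocked custom Agilent array in buffer with 50 µM zinc acetate.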
“CGCAATTGGTACTTATGATCATATTTAGGTGCTTCAATGACGGAGTCACCTAGTGCAG”: the binding signal is 6110 fluorescence intensity (a.u.).
The figure for “AAAATAAATTCATAGGTTAACTAAATATATTTATACTACTCGGAGTCACCTAGTGCAG” is 4400 fluorescence intensity (a.u.); for “AGCAAATCAAGTGCAAATATGCAATGAGCAAATTACTGCGCGGAGTCACCTAGTGCAG” it is 4330 fluorescence intensity (a.u.).
The figure for “ATGCAAGCAATCACAATTCACAATAGATGTAACAATATCGCGGAGTCACCTAGTGCAG” is 4430 fluorescence intensity (a.u.).
As to “TATGATTTATTTTATATCAGTTCAAAATATAGGCATTATGCGGAGTCACCTAGTGCAG”, the binding signal was 21500 fluorescence intensity (a.u.).
In the case of “GGCAATGATTAATTATCTATTAGTAATGTGTTAACCAGGACGGAGTCACCTAGTGCAG”, the binding signal is 42700 fluorescence intensity (a.u.).
Regarding “CGCTGACGAGTTTCACCAGGATGAAACTCTTTCCTTCTCTCGGAGTCACCTAGTGCAG”, the binding signal is 9810 fluorescence intensity (a.u.).
Consider “GTACTTGCGTTTGCATGATTGAGCAGCTGAAACCAACAGCCGGAGTCACCTAGTGCAG”, for which the binding signal is 8080 fluorescence intensity (a.u.).
As for “TTTGATCAAACTTTTAAAACTTTGATCATCAATAACATCTCGGAGTCACCTAGTGCAG”, the binding signal was 3890 fluorescence intensity (a.u.).
The figure for “AGATCAATCATATACCATTAGTGTATTTGTTTCTTTGTCACGGAGTCACCTAGTGCAG” is 30600 fluorescence intensity (a.u.); for “ATCAGATTGAGGAACACGTTACCAAGTTTGGTATTGCGGACGGAGTCACCTAGTGCAG” it is 17900 fluorescence intensity (a.u.); for “CGGGTGATTTTCTTGGATTTGTCCCCTTTCTCGTGTTAGCCGGAGTCACCTAGTGCAG” it is 13800 fluorescence intensity (a.u.).
In the case of “ACTCATAATTTAAGAAGTACTGACCAAAATTTGAAACTTTCGGAGTCACCTAGTGCAG” it was 3800 fluorescence intensity (a.u.); in that of “ATCTCGAGGGGAGAAATGGATTGATTACCTGCTCGACGTGCGGAGTCACCTAGTGCAG”, 5990 fluorescence intensity (a.u.); in that of “TTGCAATATTTGTGAAATTAATTGAAGAAATTAAGAAGAACGGAGTCACCTAGTGCAG”, 19600 fluorescence intensity (a.u.).
With “ATGGATTAGATTCGGGTCACTTTTAAGGGAGTCAAAGTGGCGGAGTCACCTAGTGCAG”, the binding signal is 3450 fluorescence intensity (a.u.).
In the case of “TTGATTTTACAGATTGTTGGGGATTGGGGTTGAACCAGCCCGGAGTCACCTAGTGCAG”, the binding signal is 19400 fluorescence intensity (a.u.).
In the case of “ATATGGATCGATTAATCAGCTGCCAATTAAGTCCGGTCAACGGAGTCACCTAGTGCAG”, the binding signal was 17100 fluorescence intensity (a.u.).
The figure for “ACACTCCGATCAATTAGATTAATCTTTTATAAAACTGGGACGGAGTCACCTAGTGCAG” is 13600 fluorescence intensity (a.u.); for “ACTACCATGCTTCATATGATTGAGCGCGCTGCAATTTGCACGGAGTCACCTAGTGCAG” it is 4900 fluorescence intensity (a.u.); for “AGCTTTCTAACTGATTAAATCCAATGGTTGAGAATTTTGTCGGAGTCACCTAGTGCAG” it is 6460 fluorescence intensity (a.u.).
On to “ATTTGGAGCTCAATCACTAGTACACGAATGATTTTCGATTCGGAGTCACCTAGTGCAG”, for which the binding signal was 4130 fluorescence intensity (a.u.).
“CATTGATATGCATTATATTTGTACTTGTGAGGGGTAGAAACGGAGTCACCTAGTGCAG”: the binding signal was 6510 fluorescence intensity (a.u.).
In the case of “ATACATTAATTTGATGCCCCAATAGAAGCACGCCAATCATCGGAGTCACCTAGTGCAG” it was 12000 fluorescence intensity (a.u.).
The figure for “AATTTATTAAGCCTAATTAATCCGTCATTAGCAAATATTTCGGAGTCACCTAGTGCAG” is 3950 fluorescence intensity (a.u.); for “TATAATAATTAACCATGTGCTAACGAGTTTTCTCAATGTCCGGAGTCACCTAGTGCAG” it is 9060 fluorescence intensity (a.u.).
Regarding “GGTTTGATAATTAAAGGAGTCGTTATACCCGGTTTTATCGCGGAGTCACCTAGTGCAG”, the binding signal is 5980 fluorescence intensity (a.u.).
In the case of “ATCTGATTAGGTTTTGGGTTTAAGTAGGAGAGGGTTGTGACGGAGTCACCTAGTGCAG”, the binding signal is 20500 fluorescence intensity (a.u.).
As to “TATAATTATTTAGGTGGCATGCAAGAAACGGGTGGACGTCCGGAGTCACCTAGTGCAG”, the binding signal was 3280 fluorescence intensity (a.u.).
With “GGTAATTAATAATATACTCCTTCGTATCTAAATTAACTTGCGGAGTCACCTAGTGCAG”, the binding signal is 33600 fluorescence intensity (a.u.).
In the case of “CTCCTTAACATGACAATCTAATACAAAATATGATATATTTCGGAGTCACCTAGTGCAG” it was 6350 fluorescence intensity (a.u.); in that of “ACAAAACAAATTACAGATTCCGCCTGCAAATTATGAGACACGGAGTCACCTAGTGCAG”, 6510 fluorescence intensity (a.u.).
“CTGATTCAAATTTGAATTTGAATTTGAATTCAAATATTTTCGGAGTCACCTAGTGCAG”: the binding signal is 6240 fluorescence intensity (a.u.).
Consider “TAACCGTAATTAAATTCTGTACACAAATCACAAACCAACACGGAGTCACCTAGTGCAG”, for which the binding signal was 20600 fluorescence intensity (a.u.).
Regarding “AGACAAATTAAATGGTTCGACCCTGAGACCACCGGAAGGACGGAGTCACCTAGTGCAG”, the binding signal is 8520 fluorescence intensity (a.u.).
As to “TCAATTAACTCCCATGACACATGTCTCGTTATCTCCTAAACGGAGTCACCTAGTGCAG”, the binding signal is 3740 fluorescence intensity (a.u.).
Regarding “TTTGATGGGGAGATTTGCTCTGGCAACCATTCGGCTATGGCGGAGTCACCTAGTGCAG”, the binding signal was 16800 fluorescence intensity (a.u.).
As to “GCCATGTTAATTAGCATGCAGTTGTGTTGTGATGGATGACCGGAGTCACCTAGTGCAG”, the binding signal was 21700 fluorescence intensity (a.u.).
As for “CTTAATTACTCCTATATATATAAGGCAACCTATTATTGCCCGGAGTCACCTAGTGCAG”, the binding signal is 25900 fluorescence intensity (a.u.).
In the case of “ACGATGACTGGGAGAGGTGATGAGATCTGGTGAGGTGTCCCGGAGTCACCTAGTGCAG”, the binding signal was 12100 fluorescence intensity (a.u.).
Regarding “AAAATGATTTCAGATATGGTTTATATTAGGACTTGGGAGTCGGAGTCACCTAGTGCAG”, the binding signal is 4420 fluorescence intensity (a.u.).
The figure for “TCCATGCCAATTACACCTATTGCCAAAACACATGAAGCAACGGAGTCACCTAGTGCAG” is 3660 fluorescence intensity (a.u.).
